In PubChem BioAssay (Tox21):
The shares of active, inactive and inconclusive entries below differ from those in the screen. For part of these data: Potencies of inconclusive entries are left out as doubtful fits. Calls of active or inactive are those of the source. The call rests on the fitted dose curve; in most records, active means well fitted curve in the direction sought with a large enough effect in the repeat runs; inconclusive means weak or mixed curves; inactive means no such curve, though single readings can be large; an effect the other way counts as inactive or inconclusive.
Tags describe the fitted curve by direction and shape.

Test: A CellTox Green Cytotoxicity Assay to monitor cytotoxicity in HepG2 cells - 24 hour (AID 1224878); further: nearly all actives have a fitted effect of over 45% in size; further: potency means the concentration at half of the fitted maximal effect; on Cytotoxicity: on the % scale 0 is the no-effect control and ±100 the full control effect
Details: CellTox Green fluorescence; series mostly up to 76.8 µM; cytotoxicity: at the top concentration
How it was run: (§1)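 Cells and non-lytic dye reagent are dispensed together (600 HepG2 cells/well) and incubated 5 h before DMSO compound transfer. Kinetic fluorescence is then recorded in the same wells during 40 h at 37 C.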
For `CC(CC1c2ccccc2CCc2ccccc21)CN(C)C` (configuration not stated), the Potency was inconclusive [activator, single point].
With `CCCCCCCCO[C@@H]1O[C@H](CO)[C@@H](O)[C@H](O)[C@H]1O` the “cytotoxicity” value was inactive: 3.66%.
For `CCCCCCCCC=O`, the Potency was inconclusive [activator, full curve, poor fit].

Test: A CellTox Green Cytotoxicity Assay to monitor cytotoxicity in HepG2 cells - 40 hour (AID 1224879); further: potency means the concentration at half of the fitted maximal effect; nearly all actives have a fitted effect of over 40% in size
Details: CellTox Green fluorescence; series mostly up to 76.8 µM; cytotoxicity increase: at the top concentration
How it was run: as §1
For `CC(CC1c2ccccc2CCc2ccccc21)CN(C)C` (configuration not stated), the Potency was inconclusive [activator, partial curve, poor fit].
For `CCCCCCCCC=O`, the Potency was inconclusive [activator, full curve, poor fit].
With `CC(C)(C)C(=O)C(=O)O` the Potency was inconclusive [activator, single point].

Test: qHTS RealTime-Glo MT Cell Viability Assay in HEK293 cells - 0 hour (AID 1224880); further: top concentration of the series differs between compounds; on the % scale 0 is the no-effect control and ±100 the full control effect; nearly all actives have a fitted effect of over 45% in size
Details: RealTime-Glo luminescence; series mostly up to 76.8 µM; activity change, negative = cytotoxicity: at the top concentration
How it was run: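 Real-time viability in HEK293: signal arises when living cells convert a prosubstrate for NanoLuc in the medium, so luminescence tracks viable cell number. Compound (23 nL, DMSO) added 5 h post-seeding; kinetic reads at 0–40 h, 37 C.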
For `COc1cc(C(=O)NCCCCCC(=O)O)cc(OC)c1OC`, the “activity change, negative = cytotoxicity” value was inactive: 15.2% [at 35.3 µM].
In the case of `CCCCCCCCO[C@@H]1O[C@H](CO)[C@@H](O)[C@H](O)[C@H]1O`, the “activity change, negative = cytotoxicity” value is reported as inactive: 11.5%.
For `C=C(C)C(=O)OCCCCCCCCCCCCC`, the “activity change, negative = cytotoxicity” value was inactive: -12.2%.

Test: A CellTox Green Cytotoxicity Assay to monitor cytotoxicity in HEK293 cells - 32 hour (AID 1224881); further: potency means the concentration at half of the fitted maximal effect; nearly all actives have a fitted effect of over 40% in size
Details: CellTox Green fluorescence; series mostly up to 76.8 µM; cytotoxicity increase: at the top concentration
How it was run: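 Cells (HEK293, 600/well) and dye reagent are dispensed together. After 5 h at 37 C, 23 nL compound is pinned in. Plates stay at 37 C for 40 h with fluorescence read at 0h, 8h, 16h, 24h, 32h and 40h.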
In the case of `CC=C(Cl)Cl`, the Potency is reported as inconclusive [activator, single point].
In the case of `OC/C(Br)=C(\Br)CO`, the Potency is reported as inconclusive [activator, single point].
In the case of `C=C(C)C(=O)OCC[N+](C)(C)C`, the Potency is reported as inconclusive [activator, partial curve, poor fit].
